“And” between values parts separate entries of the source, which are not always exact repeats. Identical values can stand only once. Some of the results follow. Single values are uncertain, as repeats are few or missing.

This assay has as its system Candida albicans DPL-15. Nature of the assay: growth (OD600) after compound treatment (apparently relative to screen median) (relative growth (fraction; screen median 1.02)); DPL-15 is a caspofungin-resistant clinical isolate; higher = more fungal growth (less antifungal activity). Particulars: 25 µM; RPMI 1640; 48 h; 30 °C.
On to `COCC1=Cc2cc3c(cc2C(C(C(=O)OC)C(=O)OC)N1C(=O)OC)OCO3` (stereo not given), for which the growth worked out at 1.05.
Take `COC[C@H]1O[C@H](c2ccccc2)C=C[C@@H]1OCC#Cc1cc(Cl)ccc1N`: the growth came to 0.874.
Then `C=CC[C@]12C[C@@]3(O[C@H](C(CC)CC)N=C3C[C@H](c3ccc(OC)cc3)[C@H]1C)N(Cc1cccs1)C2=O`, with 0.912.
Then `COc1ccc(Cn2nc(-c3ccoc3)cc2Nc2cc(O)cc(O)c2C(=O)N2Cc3cccnc3C2)cc1`, with 1.1.
Under `COC(=O)C1=C(C(=O)OC)[C@@H]2Nc3ccccc3[C@@]23C[C@@H](C(=O)OC)N(C(C)=O)C3=N1` stands 0.983; under `COc1ccc([C@@]23Oc4cc(OC)cc(OC)c4[C@]2(O)C=C(C(=O)c2ccco2)[C@H]3c2ccccc2)cc1`, 1.06.
Regarding `COc1ccc(CCn2ccc([N+](=O)[O-])n2)cc1`, the growth is 0.925.
Under `C[C@H]1NC(=O)C[C@H]2C[C@H](C)[C@H](c3ccccc3)N2C1=O` stands 1.98.
Then `COc1ccc(Cn2nc(C(C)(C)C)cc2N)cc1`, with 1.18; and `CC(C)[C@@H](COS(=O)(=O)NCC(F)(F)F)N1C(=O)c2ccccc2C1=O`, with 1.07.
`CC(C)CC1=NCCN(C)C2=C1C(c1ccccc1)N(Cc1ccccc1)C2=O` (stereo not given): the growth is 0.962.
Under `CCc1cc(Nc2cc(O)cc(O)c2C(=O)N2Cc3cccnc3C2)n(Cc2ccc(OC)cc2)n1` stands 0.967; under `Cn1c(-c2ccc(N3CCOCC3)cc2)c(O)c(=O)c2c(F)cccc21`, 1.02; under `C=CCC[C@@H](O)COc1cc2c(cc1C1(c3cc4c(cc3OC[C@H](O)CCC=C)OCO4)C(=O)Nc3cc(Br)ccc31)OCO2`, 1.01.
`CO[C@@H]1[C@H](O)CC[C@]2(O)CN(c3ccc(C)c(Br)c3)[C@@H](CC=C(C)C)[C@](C)(O)[C@@H]12`: the growth worked out at 0.845.
Then `CCN(CC)CCCNC1=NC(c2ccc(Cl)cc2)C(C(=O)OC)=C(C)N1C` (stereo not given), with 1.16; and `COC(=O)C/C=C/[C@H](C)[C@@H](NC(=O)[C@H](CCC(=O)OC)NC(=O)OC(C)(C)C)c1cccnc1`, with 1.09.
Under `COc1ccc(N2C(=O)c3nn(C)c(CC(C)C)c3C2c2ccc(F)cc2)cc1` (stereo not given) stands 0.958; under `COc1cc(N2C(=O)c3[nH]nc(CC(C)C)c3C2c2ccccc2Br)cc(OC)c1OC` (stereo not given), 1.
Then `CO[C@@H]1[C@H](O)CC[C@]2(O)CN(c3c(C)noc3C)[C@@H](CC=C(C)C)[C@](C)(O)[C@@H]12`, with 1.03; and `COC(=O)[C@@H]1[C@@H](C)N(Cc2ccccc2)C(=O)N[C@H]1c1ccccc1`, with 0.991.
For the molecule `COc1ccc(N2C(=O)c3[nH]nc(CC(C)C)c3C2c2ccccc2Br)cc1` (stereo not given), the growth was 1.02.
Under `COc1cc(OC)c2c(=O)c3c(C[C@@H]4[C@H](c5cc(OC)c(O)c6oc7cc(OC)cc(OC)c7c(=O)c56)C=C(C)CC4(C)C)cc(OC)c(O)c3oc2c1` stands 0.846.
Under `COc1ccc(N2C(=O)c3[nH]nc(CC(C)C)c3C2c2ccc(F)cc2)cc1F` (stereo not given) stands 0.884; under `COC(=O)c1[nH]c2ccc(OC)cc2c1[C@]12CCN(C(=O)C3CC3)[C@H]1Nc1ccccc12`, 0.844.
Under `COc1cccc(C#Cc2ccc3c(=O)c(Cc4cccnc4)coc3c2)c1` stands 1.37; under `COC(=O)[C@H]1[C@@H](O)[C@@]2(O)c3c(F)cccc3N(C)[C@@]2(c2ccc(OC)cc2)[C@@H]1c1ccccc1`, 0.984; under `CC(=O)O[C@@H]1C=C[C@@H](C#Cc2ccc(C(C)(C)C)cc2)O[C@@H]1COC(=O)NCc1ccccc1`, 1.08.
On to `COC(=O)c1nnc(C(=O)N(C)CC#Cc2ccccc2Cl)c2c3ccccc3n(S(=O)(=O)c3ccc(C)cc3)c12`, for which the growth was determined as 1.08.
On to `COC(=O)C1=C(C(=O)OC)[C@@H]2N(Cc3ccccc3)c3ccccc3[C@@]23C[C@@H](C(=O)OC)N(S(=O)(=O)c2ccc([N+](=O)[O-])cc2)C3=N1`, for which the growth was 0.933.
For `COC(=O)c1c(-c2ccccc2Cl)c2c(c3c4ccccc4n(S(=O)(=O)c4ccc(C)cc4)c13)C(=O)N(C)C2`, the growth is 1.09.
Then `Cc1nn(-c2ccc(C(C)(C)C)cc2)c2c1C(c1ccc3c(c1)OCO3)NC2=O` (stereo not given), with 1.05; and `COC(=O)C1=C(C)N(C)C(NCC2CCCCC2)=NC1c1ccc(Cl)cc1` (stereo not given), with 0.801; and `Cc1nn(C)cc1Nc1cc(O)cc(O)c1C(=O)N1CCC(F)(F)C1`, with 1.1.
Then `COC(=O)c1[nH]c2ccc(OC)cc2c1[C@]12CCN(C(=O)c3ccccc3)[C@H]1Nc1ccccc12`, with 0.955.
`Cc1c(O)ccc(C=O)c1C`: the growth is 0.961.
Under `CCO[C@@H]1CCN(C(=O)c2c(O)cc(O)cc2Nc2ccnn2C)C1` stands 1.1; under `Cc1nnc(N2CCC(C(=O)Nc3cccc(F)c3)CC2)c2nn(-c3ccccc3)c(C)c12`, 1.45; under `COc1ccc([C@@]23Oc4cc(OC)cc(OC)c4[C@]2(O)[C@H](O)[C@H](C(=O)c2cc4ccccc4o2)[C@H]3c2ccccc2)cc1`, 0.759.
Under `Cc1ccc(-c2cc(N)n(C)n2)cc1` stands 1.02; under `COC(=O)C1=C(C)N(C)C(NCc2cc(OC)c(OC)c(OC)c2)=NC1c1ccccc1C(F)(F)F` (stereo not given), 1.02.
Under `Cc1cccc(-c2cc(N)n(C)n2)c1` stands 1.06; under `COC(=O)C1=C(C)N(Cc2ccc(Br)cc2)C(=S)NC1c1ccccc1` (stereo not given), 0.936.
As to `C=CCN1C(=O)C2=C(C(C(C)C)=NCC(C)(C)N2)C1c1ccc(Br)cc1` (stereo not given), the growth was found to be 1.11.
As for `O=S(=O)(Nc1nc2ccccc2s1)N1CCOCC1`, the growth was 1.28.
Turning to `C=Cc1cc(O[Si](C)(C)C(C)(C)C)ccc1[C@@H]1CCC2(OCCO2)[C@@]1(O)CC(=C)C`, the growth is 0.86.
Then `CC(C)c1ccc(Cn2nccc2Nc2cc(O)cc(O)c2C(=O)N2Cc3cccnc3C2)cc1`, with 1.07; and `COC(=O)C1=C(C)N(Cc2ccc(F)cc2)C(=S)NC1c1ccccc1Br` (stereo not given), with 1.19.
Under `CCCCCOS(=O)(=O)N[C@H](C)c1ccccc1` stands 1.1; under `CC(C)Cc1c2c(nn1-c1ccccc1)C(=O)NC2c1ccc(F)cc1` (stereo not given), 0.931.
Then `CC(C)=CCc1cc(OCC(N)=O)cc2oc3cccc(O)c3c(=O)c12`, with 1.21.
With `CN1CCN=C(c2ccccc2)C2=C1C(=O)N(Cc1ccccc1)C2c1ccccc1` (stereo not given), the growth is 1.05.
Under `COC(=O)c1cc2c(c3c4cc(C)ccc4n(S(=O)(=O)c4ccc(OC)cc4)c13)C(=O)N(Cc1ccc(N(C)C)cc1)C2` stands 1.06.
Under `Nc1c(-c2ccc(F)cc2)cnc2c(-c3ccc(F)nc3)cnn12` stands 1.39.
Under `CCN1C(=O)N(S(=O)(=O)c2ccc(C)cc2)[C@@H]2C[C@H](C(=O)N3CCCC3)[C@H](C)[C@H](c3ccccc3)C[C@@H]21` stands 1.01; under `C=CCN1C(=O)C2=C(C(CC(C)C)=NCCN2)C1c1ccc(C)cc1` (stereo not given), 0.977.
With `CCc1ccccc1-n1nc(CC(C)C)c2c1C(=O)NC2c1ccc2c(c1)OCO2` (stereo not given), the growth was 1.12.
Then `COC(=O)C1=C(C)[C@]2(C)C[C@@H]3[C@@]4(C)CC[C@H](O)C(C)(C)[C@@H]4CC[C@@]3(C)OC2=C(C)C1=O`, with 1.04; and `COc1ccc(N2C(=O)C3=C(C(CC(C)C)=NCC(C)(C)N3)C2c2ccc3c(c2)OCO3)cc1` (stereo not given), with 1.03.
For `CC[C@@H](O)COc1cc2c(cc1C1(c3cc4c(cc3OC[C@H](O)CC)OCO4)C(=O)Nc3ccc(C)cc31)OCO2`, the growth stood at 0.982.
Under `O=C(O)[C@H]1[C@H](C(=O)O)[C@@H](c2ccccc2)[C@@H]1c1ccccc1` stands 1.4; under `O=C1C(Nc2ccccc2)=CC(c2ccc3c(c2)OCO3)N1c1ccc(F)cc1` (stereo not given), 1.01.
Under `CC1=NCC(C)(C)NC2=C1C(c1ccc(F)cc1)NC2=O` (stereo not given) stands 0.95; under `C=CCN1C(=O)C2=C(C(C(C)C)=NCCN2C)C1c1ccc(F)cc1` (stereo not given), 1.06.
Under `Cc1nn(C)c(C)c1Nc1cc(O)cc(O)c1C(=O)N1CC[C@H](F)C1` stands 1.08.
For the molecule `COC(=O)CCCCCN(C(=O)OC(C)(C)C)S(=O)(=O)NC(C)(C)C`, the growth is 1.12.
As to `CC(C)Cc1n[nH]c2c1C(c1cccc(C(F)(F)F)c1)N(c1ccc3c(c1)OCO3)C2=O` (stereo not given), the growth came out at 0.88.
For the molecule `O=C1CCCC(C(C(=O)OCc2ccccc2)C(=O)OCc2ccccc2)C1` (stereo not given), the growth is 0.936 and 0.945.
Then `COC(=O)Cc1nnn2c1[C@H](C)[C@H](c1cccc(OC)c1OC)OCC2`, with 1.05.
Under `CC1=NCCNC2=C1C(c1ccccc1)N(c1ccccc1)C2=O` (stereo not given) stands 0.912; under `C#CCC(C)(C)CNC(=O)CC1(CNC(=O)c2cccc(CS(=O)(=O)c3ccc(C)cc3)c2)CCCCC1`, 1.08.
Then `CCCCCOS(=O)(=O)Nc1ccc(C#N)cc1`, with 1.03.
With `CO[C@@H]1[C@H](O)CC[C@]2(O)CN([C@@H](C)c3ccccc3)[C@](C)([C@H](O)CC=C(C)C)[C@@H]12`, the growth was 1.12.
Then `CC(=O)C1=C(C)N(Cc2ccc(F)cc2)C(=S)NC1c1cccc(F)c1` (stereo not given), with 0.945; and `COc1ccc(C[C@@H](CO)[C@@H](CO)Cc2ccc(OC)cc2)cc1`, with 1.2.
